Target: T1, C-terminal 6xHis tagged IL-18Rβ extracellular domains (residues 15-356), for SPR (human, UniProt O95256-1 15-356)
T1 construct: human IL-18 receptor β, extracellular domains, residues 15-356 of NM_003853; also called IL-18Rβ WT; IL-18Rβ WT (control); source: silkworm (B. mori) larvae, BmNPV bacmid, haemolymph, purified as from Sf9; not shown: 6xHis, C-terminal, kept
T1 sequence (looked up): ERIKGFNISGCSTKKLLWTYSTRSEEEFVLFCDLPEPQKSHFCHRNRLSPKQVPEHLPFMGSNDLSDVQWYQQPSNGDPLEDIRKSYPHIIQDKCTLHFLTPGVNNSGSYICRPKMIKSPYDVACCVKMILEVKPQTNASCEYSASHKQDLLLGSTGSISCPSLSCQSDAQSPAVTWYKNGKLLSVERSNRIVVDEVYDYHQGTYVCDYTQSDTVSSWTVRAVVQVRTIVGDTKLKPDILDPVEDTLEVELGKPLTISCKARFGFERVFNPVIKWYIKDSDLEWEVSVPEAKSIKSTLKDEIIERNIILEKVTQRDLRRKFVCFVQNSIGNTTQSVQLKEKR
Assay: SPR; BIAcore 3000, 25 °C, C-terminal 6xHis IL-18Rβ immobilised (~100 RU) on an NTA sensor chip, un-tagged IL-18Rα saturated with 500 nM IL-18 as analyte in HBS-P
Conditions: both partners purified

B1: IL-18 M150A/IL-18Rα WT complex (SPR analyte) (complex)
chain 1: [no letters for about 150 residues with changes]
chain 2: ESCTSRPHITVVEGEPFYLKHCSCSLAHEIETTTKSWYKSSGSQEHVELNPRSSSRIALHDCVLEFWPVELNDTGSYFFQMKNYTQKWKLNVIRRNKHSCFTERQVTSKIVEVKKFFQITCENSYYQTLVNSTSLYKNCKKLLLENNKNPTIKKNAEFEDQGYYSCVHFLHHNGKLFNITKTFNITIVEDRSNIVPVLLGPKLNHVAVELGKNVRLNCSALLNEEDVIYWMFGEENGSDPNIHEEKEMRIMTPEGKWHASKVLRIENIGESNLNVLYNCTVASTGGTDTKSFILVRKADMADIPGHVFTR
modifications: IL-18Rα N-glycosylated (insect/silkworm expression)
- Kd: 60 nM

— publication PMC4275594 (Nature Communications, 2014)
